Patent US20250296996A1, “ANGIOPOIETIN-RELATED PROTEIN 7-SPECIFIC ANTIBODIES AND USES THEREOF” (Broadwing Bio, Inc., priority 2022, published 2025)

Legend:
[1] = target: T1, mouse ANGPTL7 protein (muANGPTL7-his, R&D Systems) (Mus musculus, UniProt Q8R1Q3); assay: Octet HTX binding kinetics to muANGPTL7-his; settings: monovalent KD, 1:1 model; muANGPTL7-his @ 200 nM
T1 construct: His; purchased R&D Systems
T1 sequence (Q8R1Q3 22-337): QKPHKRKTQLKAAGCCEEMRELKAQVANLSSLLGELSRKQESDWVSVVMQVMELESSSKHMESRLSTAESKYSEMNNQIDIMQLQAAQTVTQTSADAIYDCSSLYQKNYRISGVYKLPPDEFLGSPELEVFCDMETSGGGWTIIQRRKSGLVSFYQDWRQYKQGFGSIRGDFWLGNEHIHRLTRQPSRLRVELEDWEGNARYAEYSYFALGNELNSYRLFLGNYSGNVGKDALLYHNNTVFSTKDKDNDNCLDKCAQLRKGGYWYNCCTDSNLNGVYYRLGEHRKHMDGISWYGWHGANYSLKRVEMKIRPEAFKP
Description: (§1) Experiments were also conducted to determine the reactivity and dissociation constants (KD) of anti-ANGPTL7 antibodies with the mouse ANGPTL7 protein. Binding experiments were performed on Octet HTX (ForteBio) in 1×PBS, pH 7.4, 0.1 mg/mi BSA, 0.05% Sodium Azide, and 0.02% Tween 20. Antibodies at a concentration of 50 nM were loaded on pre-hydrated AHC biosensors for 5 mA. The loaded sensors were dipped into monovalent muANGPTL7-his (R&D Systems) at a concentration of 200 nM for 5 min of association, followed by 10 min of dissociation. Results were analyzed with ForteBio Data Analysis 11.1 and fit to a 1:1 binding model to determine the monovalent KD. Responses (nm) at the end of association were also determined (Table 5).

[2] = tested on: rabbit ANGPTL7 protein (P66, rabbit ANGPTL7-his); assay: Octet HTX binding kinetics to P66 (rabbit ANGPTL7-his); settings: P66 @ 200 nM; for KD (M): monovalent KD, 1:1 model
Description: as §1, with “([…])” for “(KD)”, “rabbit” for “mouse”, “Rx PBS,” for “1×PBS,”, “min.” for “mA.”, “P66 (rabbit ANGPTL7-his)” for “muANGPTL7-his (R&D Systems)”, “6).” for “5).”

[3] = Differential scanning fluorimetry (Protein Thermal Shift assay), thermal stability; format: physicochemical; settings: DSF, melt 25° C. to 95° C., triplicate; in °C (unit assumed)
Description: Human ANGPTL7 monoclonal antibody differential scanning fluorimetry (DSF). […] Among the many techniques used to study the stability of mAbs, differential scanning fluorimetry (DSF) offers both excellent throughput and minimal material consumption. DSF measures the temperature of the protein unfolding transition (Tm) based on the change in fluorescence intensity of an environmentally sensitive dye.
Experiments were conducted to assess the thermal stability of the human ANGPTL7 monoclonal antibodies (“ATX” antibodies) of the present disclosure by determining the melting temperature. Thermal stability was assessed via differential scanning fluorimetry (DSF) utilizing the Protein Thermal Shift (PTS) assay from Applied Biosystems. The assay was performed according to the manufacturer's instruction. Briefly, the antibody to be evaluated was prepared in triplicate by mixing with Protein Thermal Shift dye and buffer; a real-time melt experiment from 25° C. to 95° C. was run on QuantStudio 3. Data was analyzed by using Protein Thermal Shift Software and the melting temperature (Tm) was calculated from the melt curve (Table 1).

B1: ATX-P-428 (antibody)
heavy: QVQLVQSGAEVKKPGASVKVSCKASGYTFSSYGISWVRQAPGQGLEWMGWISAYNGNTNYAQNLRGRVAMTTDTSTTTAYMELRSLRSDDTAVYYCARVSLVWFGELPRGFDYWGQGTLVTVSSASTKGPSVFPLAPSSKSTSGGTAALGCLVKDYFPEPVTVSWNSGALTSGVHTFPAVLQSSGLYSLSSVVTVPSSSLGTQTYICNVNHKPSNTKVDKRV[in this place human IgG1 Fc with changes]
light: [in this place about 200 residues]
KD (M) [1]: N.B.
kdis(1/8) [2]: N.B.
KD (M) [2]: N.B.
Tm 2 - Mean [3]: 79.24
Tm D - Mean [3]: 62.62

B2: ATX-P-432 (antibody)
heavy: QVQLVQSGAEVKKPGASVKVSCKASGYTFTDYYIHWVRQAPGPGLEWLGWINPNTGATKYAQKFQGRVTMTRDTSISTAYMELSRLRSDDTAVYYCAREDNGNYGDVFDIWGQGTMVTVSSASTKGPSVFPLAPSSKSTSGGTAALGCLVKDYFPEPVTVSWNSGALTSGVHTFPAVLQSSGLYSLSSVVTVPSSSLGTQTYICNVNHKPSNTKVDKRV[in this place human IgG1 Fc with changes]
light: [in this place about 200 residues]
KD (M) [1]: N.B.
kdis(1/8) [2]: N.B.
Response ([2]; at end of association): 0.09 nm
KD (M) [2]: N.B.
Tm D - Mean [3]: 62.82

B3: ATX-P-429: human anti-ANGPTL7 monoclonal antibody; HCDR1-3 SEQ ID NOs 3, 9, 14; LCDR1-3 SEQ ID NOs 123, 129, 135 (antibody)
heavy: QVQLVQSGAEVKKPGASVKVSCKASGYTFSSYGISWVRQAPGQGLEWMGWISAYNGNTNYAQNLRGRVAMTTDTSTTTAYMELRSLRSDDTAVYYCARVSLVWFGELPRGFDYWGQGTLVTVSSASTKGPSVFPLAPSSKSTSGGTAALGCLVKDYFPEPVTVSWNSGALTSGVHTFPAVLQSSGLYSLSSVVTVPSSSLGTQTYICNVNHKPSNTKVDKRV[in this place human IgG1 Fc with changes]
light: [in this place about 100 residues]YCMQTLQTPYTFGQGTKLEIKRTVAAPSVFIFPPSDEQLKSGTASVVCLLNNFYPREAKVQWKVDNALQSGNSQESVTEQDSKDSTYSLSSTLTLSKADYEKHKVYACEVTHQGLSSPVTKSFNRGEC
KD (M) [1]: N.B.
kdis(1/8) [2]: N.B.
KD (M) [2]: N.B.
Tm 2 - Mean [3]: 80.49
Tm D - Mean [3]: 62.64

B4: ATX-P-443 (antibody)
heavy: QVQLVQSGAEVKKPGASVKVSCKASGYTFTSYGISWVRQAPGQGLEWMGWIIAYNGNTNYAQKLQGRITMTTNTSTNTAYMELRSLRSDDTAVYYCGRDTGFSFDYWGQGTLVTVSSASTKGPSVFPLAPSSKSTSGGTAALGCLVKDYFPEPVTVSWNSGALTSGVHTFPAVLQSSGLYSLSSVVTVPSSSLGTQTYICNVNHKPSNTKVDKRV[in this place human IgG1 Fc with changes]
light: [in this place about 200 residues]
KD (M) [1]: N.B.
kdis(1/8) [2]: N.B.
KD (M) [2]: N.B.
Tm D - Mean [3]: 62.45

B5: ATX-P-440: human anti-ANGPTL7 monoclonal antibody; HCDR1-3 SEQ ID NOs 33, 49, 64; LCDR1-3 SEQ ID NOs 93, 105, 117 (antibody)
heavy: EVQLVESGGGVVRPGGSLRLSCAASGFTFDDYGMSWVRQAPGKGLEWVSTINWNGGNTGYADSVKGRFTISRDNAKNSLYLQMNSLRAEDTALYYCARDEGAAGLGYYFDYWGQGTLVTVSSASTKGPSVFPLAPSSKSTSGGTAALGCLVKDYFPEPVTVSWNSGALTSGVHTFPAVLQSSGLYSLSSVVTVPSSSLGTQTYICNVNHKPSNTKVDKRV[in this place human IgG1 Fc with changes]
light: DIQMTQSPSTLSASVGDRVTITCRASQSISSWLAWYQQKPGKAPKLLIYATSSLQSGVPSRFSGSGSGTDFTLTISSLQPEDFATYYCQQSYSTPITFGQGTRLEIKRTVAAPSVFIFPPSDEQLKSGTASVVCLLNNFYPREAKVQWKVDNALQSGNSQESVTEQDSKDSTYSLSSTLTLSKADYEKHKVYACEVTHQGLSSPVTKSFNRGEC
kdis(1/8) [2]: 3.18E−04 1/8
Tm 2 - Mean [3]: 79.68
Tm D - Mean [3]: 62.58

B6: ATX-P-439 (antibody)
heavy: [in this place about 100 residues]VERDMVRGHYYYYMDVWGKGTTVTVSSASTKGPSVFPLAPSSKSTSGGTAALGCLVKDYFPEPVTVSWNSGALTSGVHTFPAVLQSSGLYSLSSVVTVPSSSLGTQTYICNVNHKPSNTKVDKRV[in this place human IgG1 Fc with changes]
light: DIQMTQSPSSVSASVGDRVTITCRASQGISSWLAWYQQKPGKAPKLLIYAASSLQSGVPSRFSGSGSGTDFTLTISSLQPEDFATYYCQQANSFPWTFGQGTKVDIKRTVAAPSVFIFPPSDEQLKSGTASVVCLLNNFYPREAKVQWKVDNALQSGNSQESVTEQDSKDSTYSLSSTLTLSKADYEKHKVYACEVTHQGLSSPVTKSFNRGEC
KD (M) [1]: P.F.
kdis(1/8) [2]: 2.98E−04 1/8
Tm 2 - Mean [3]: 83.42
Tm D - Mean [3]: 62.77

B7: ATX-P-442 (antibody)
heavy: QITLKESGPTLVKPTQTLTLTCTFSGFSLSTSGVGVGWIRQPPGKALEWLALIYWNDDKRYSPSLKSRLTITKDTSKNLVVLTMTNMDPVDTATYYCARDYGDYWFFDLWGRGTPVTVSSASTKGPSVFPLAPSSKSTSGGTAALGCLVKDYFPEPVTVSWNSGALTSGVHTFPAVLQSSGLYSLSSVVTVPSSSLGTQTYICNVNHKPSNTKVDKRV[in this place human IgG1 Fc with changes]
light: DIQMTQSPSSLSASVGDRVTITCRASQGISSYLAWYQQKPGKAPKLLIYAASSLQSGVPSRFSGSGSGTDFTLTISSLQPEDFATYYCQQSFSTPLTFGGGTKLEIKRTVAAPSVFIFPPSDEQLKSGTASVVCLLNNFYPREAKVQWKVDNALQSGNSQESVTEQDSKDSTYSLSSTLTLSKADYEKHKVYACEVTHQGLSSPVTKSFNRGEC
KD (M) [1]: P.F.
kdis(1/8) [2]: 4.87E−04 1/8
Tm 2 - Mean [3]: 85.10
Tm D - Mean [3]: 62.44

B8: ATX-P-427 (antibody)
heavy: EVQLVESGGGVVRPGGSLRLSCAASGFSFDDYGMSWVRQVPGKGLEWVSGINWNGGSTGYADSVKGRFTISRDNAKNSLYLQMSSLRAEDTALYYCASYSGSFRDAFDIWGQGTMVTVSSASTKGPSVFPLAPSSKSTSGGTAALGCLVKDYFPEPVTVSWNSGALTSGVHTFPAVLQSSGLYSLSSVVTVPSSSLGTQTYICNVNHKPSNTKVDKRV[in this place human IgG1 Fc with changes]
light: AIQMTQSPSSLSASVGDRVTITCRASQGIRNDLGWYQQKPGKAPKLLIYAASSLQSGVPSRFSGSGSGTDFTLTISSLQPEDFATYYCLQDYNYPYTFGQGTKLEIKRTVAAPSVFIFPPSDEQLKSGTASVVCLLNNFYPREAKVQWKVDNALQSGNSQESVTEQDSKDSTYSLSSTLTLSKADYEKHKVYACEVTHQGLSSPVTKSFNRGEC
kdis(1/8) [2]: 1.33E−04 1/8
Tm 2 - Mean [3]: 67.87
Tm D - Mean [3]: 62.78
